Results from PubChem BioAssay AID686978 (National Center for Advancing Translational Sciences (NCATS), 2013).
About 64,000 (15%) of roughly 420,000 compounds were called active. Inconclusive results, whose numbers are uncertain, are shown with a selection of clear calls. The call rests on the fitted dose curve; in most records, active means well fitted inhibition curve with a large enough effect; inconclusive means small, poorly fitted or top-dose-only effect; inactive means flat fitted curve, though single readings scatter. No potency is given beside an inconclusive call; the fits are too rough.

Assay: qHTS for Inhibitors of human tyrosyl-DNA phosphodiesterase 1 (TDP1): qHTS in cells in absence of CPT; further: nearly all actives have a fitted effect of over 55% in size
Conditions: DT40 Tdp1-/- hTDP1 cells, no CPT, ATP luminescence, 48 h; series mostly up to 46.2 µM
Excerpt: Human tyrosyl-DNA phosphodiesterase 1 (TDP1) is a novel repair gene, and we propose to use it as a new target for anticancer drug development. TDP1 is not an essential protein, but under treatment with topoisomerase I poison (camptothecin: CPT), TDP1 works as a critical factor for cell survival. To directly identify novel TDP1 inhibitors active in a cellular environment, we have knocked-out the Tdp1 gene in chicken DT40 cells (Tdp1-/-) and generated a complemented counterpart cells that contains a stable transfection of the human TDP1 gene (Tdp1-/-;hTDP1 cells). For the primary screen, Tdp1-/-;hTDP1 cells will be exposed to small molecules in the presence or absence of CPT, and their growth kinetics will be evaluated after 48 hours by measuring ATP activity. […] The hit compounds will then be evaluated in the presence or absence of CPT using Tdp1-/- cells. […] In tertiary assays, biochemical gel-based assays will be used to assess whether the hit compounds specifically target TDP1.
To this end, we have screened this cell line against the MLSMR in two primary screens. In one screen we add CPT and in the other we screen in the absence of CPT; this AID represents the screen where CPT was absent.
NIH Chemical Genomics Center [NCGC]
NIH Molecular Libraries Probe Centers Network [MLPCN]
Assay Submitter (PI): Yves Pommier, NCI
DT40-hTDP1 cells without 20 nM Camptothecin (add 20 microL of DMSO in 1 L of cell culture medium) were dispensed at 400 cells/5microL/well in tissue culture treated 1536-well white wall/solid bottom assay plates (Greiner Bio-One North America, NC, U.S.A.) using a Multidrop Combi 8 channel dispenser (Thermo Fisher, Waltham, MA, USA). 23 nL compounds and controls were transferred using the pin tool (Kalypsys, San Diego, CA, USA) to the assay plates. The assay plates were then incubated at 37 masculineC for a minimum 48 hr. Three microL of Cell Titer Glo solution was added to the plates and incubated at RT in dark for 30 min. Luminescence was read using ViewLux (Perkin Elmer) with 1 sec exposure slow speed, high gain and 2x binning.
Potency means the concentration at half of the fitted maximal effect; tags describe the fitted curve by direction and shape.

| Structure (SMILES) | Potency |
| --- | --- |
| CC(=NNC(=O)CSc1nc2ccccc2o1)c1ccco1 | inactive |
| CN(Cc1ccccc1)C(=O)CSc1nnc(-c2cccc(Cl)c2)o1 | inconclusive [inhibitor, single point] |
| CCCCCNC(=O)C(C1CC1)n1c(=O)c(-c2cc3ccccc3[nH]2)nc2ccccc21 (stereo unspecified) | inconclusive [inhibitor, single point] |
| CCc1ccc(N=C2NC(=O)/C(=C/c3cc(OC)c(OC)c(OC)c3)S2)cc1 | inconclusive [inhibitor, single point] |
| CCc1ccc(S(=O)(=O)NCc2ccc3c(c2)CCN3C(=O)c2ccc(C)cc2)cc1 | active: 8.2 µM |
| COc1ccc(CCC(=O)N(C)CC(=O)Nc2cc(C)ccc2C)cc1 | inactive |
| CCc1nnc(NC(=O)c2ccc(Br)o2)s1 | inactive |
| O=C(CSc1nc(O)cc(=O)n1-c1ccccc1)NCc1ccccc1 | inactive |
| Nn1c(SCc2csc(-c3ccccc3)n2)nnc1-c1cccs1 | inconclusive [inhibitor, single point] |
| CCc1ccc(-c2cc(C)no2)cc1S(=O)(=O)N1CCN(c2ccccn2)CC1 | inconclusive [inhibitor, single point] |
| CC1=CC(C)(C)Nc2ccc(OC(=O)CN3C(=O)C4CCCCC4C3=O)cc21 (stereo unspecified) | active: 2.31 µM |
| COc1ccc([N+](=O)[O-])cc1NC(=O)C1CCCO1 (stereo unspecified) | inactive |
| Cc1ccc(S(=O)(=O)N2CCN(C(=O)c3cc(S(=O)(=O)N4CCOCC4)c(Cl)cc3Cl)CC2)cc1 | inconclusive [inhibitor, single point] |
| CCOc1cc(C(=O)NCc2ccco2)cc(OCC)c1OCC | inactive |
| CCOC(=O)N1CCN(Cc2nc3cc(NC(C)=O)ccc3n2CC)CC1 | inactive |
| CCOC(=O)C1(C)CCCN(C(=O)CCc2ccccc2)C1 (stereo unspecified) | inactive |
| O=C(CCC(=O)N1CCN(c2ccc(C(F)(F)F)cn2)CC1)c1cccs1 | inconclusive [inhibitor, partial curve] |
| Cc1ccccc1CN1C[C@@H]2C[C@@H](c3cn(C)nc3-c3ccccc3)N3CCC[C@@]23C1=O | inconclusive [inhibitor, single point] |
| COC(=O)c1ccc(N2C(=O)CC(N3CCC(O)(c4ccc(Br)cc4)CC3)C2=O)cc1 (stereo unspecified) | inactive |
| COc1ccccc1Oc1ncnc2c1cnn2-c1ccccc1 | inconclusive [inhibitor, single point] |
| COc1ccc(CCNC(=O)c2nnn(-c3cccc(C)c3)c2N)cc1OC | inconclusive [inhibitor, single point] |
